# Results from article PMC6919601, “Identification of Plasmodium dipeptidyl aminopeptidase allosteric inhibitors by high throughput screening” (PLoS ONE, 2019).
# Several values for one entry are separate records, joined by “and”; a condition that tells them apart may be missing. Identical values can stand only once. Among all 110,000 compounds or so, about 230 (0.21%) showed an effect of 50% or more. This is one part of the list.
# Target: DPAP1 (Plasmodium falciparum, UniProt Q8IIJ9)
# Assay: primary screen, percent inhibition; read by cleavage of a fluorogenic dipeptide substrate; higher = more effect of the substance
# Design: species or system P. falciparum D10 trophozoite lysates; single well
# Procedure: HTS was performed in black 384-well plates. The first and last two columns of each plate contained our negative (DMSO) and positive (10 μM JCP410) controls, and the 20 central columns the test compounds at 10 μM. Compounds were first diluted 50-fold into assay buffer (50 mM sodium acetate, 5 mM MgCl2, 10 mM β-mercaptoethanol, and 0.1% CHAPS, pH 5.5) from a 10 mM DMSO stock plates. One microliter of this 200 μM intermediate stock plate was dispensed into the assay plate. […] After 30 min, the reaction was quenched with 20 μL of 0.5 M acetic acid, and the fluorescent intensity measured at 523 nm (λex = 492 nm) using an Analyst HT multimode plate reader (Molecular Devices).
# 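Note: 30 min substrate incubation versus DMSO and 10 µM JCP410 controls.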
# Chain of DPAP1 (Q8IIJ9 whole entry, looked up): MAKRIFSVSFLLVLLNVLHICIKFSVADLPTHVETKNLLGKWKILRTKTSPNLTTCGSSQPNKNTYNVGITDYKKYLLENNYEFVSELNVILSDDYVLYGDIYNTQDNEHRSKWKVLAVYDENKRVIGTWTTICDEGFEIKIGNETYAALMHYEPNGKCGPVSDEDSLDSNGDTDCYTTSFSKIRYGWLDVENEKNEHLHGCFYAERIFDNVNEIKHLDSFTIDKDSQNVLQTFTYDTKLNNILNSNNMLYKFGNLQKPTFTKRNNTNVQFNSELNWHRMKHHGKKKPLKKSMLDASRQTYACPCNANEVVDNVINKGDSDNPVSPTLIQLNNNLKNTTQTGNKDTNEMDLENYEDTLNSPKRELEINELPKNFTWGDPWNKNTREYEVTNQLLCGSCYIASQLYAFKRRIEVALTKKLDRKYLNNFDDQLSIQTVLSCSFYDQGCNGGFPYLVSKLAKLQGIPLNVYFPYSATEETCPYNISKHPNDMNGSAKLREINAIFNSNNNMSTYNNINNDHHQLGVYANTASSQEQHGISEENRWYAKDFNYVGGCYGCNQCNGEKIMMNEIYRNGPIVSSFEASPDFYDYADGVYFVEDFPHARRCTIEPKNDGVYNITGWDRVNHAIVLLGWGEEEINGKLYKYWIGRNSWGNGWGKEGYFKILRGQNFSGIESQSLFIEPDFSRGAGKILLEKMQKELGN
row,Structure (SMILES),% Inhibition @ 10 uM
1,CCCN1CCC(NC2CCCC2)CC1,-1.81%
2,CC1NC(=O)N(C)C2C1C(c1ccccc1)NC(=O)N2C (stereo not shown),3.69%
3,CCOc1ccc(C(=O)CCN(C)C)cc1,-1.25%
4,Nc1nonc1-c1nc2ccccc2n1CC(=O)Nc1ccccc1C(F)(F)F,31.1%
5,O=C(CN(c1cc(C(F)(F)F)ccc1Cl)S(=O)(=O)c1ccccc1)NCc1cccnc1,1.62%
6,Cc1nn(Cc2ccccc2)c2ncccc12,-5.5%
7,Cc1ccc(C)c(NCc2ccccn2)c1,-2.35%
8,C=C(C)Cn1c(SCC(=O)Nc2nccs2)nc2sc3c(c2c1=O)CCC3,-0.994%
9,CC(C)(C)c1ccc(S(=O)(=O)N2CCC(C(N)=O)(N3CCCCC3)CC2)cc1,-4.19%
10,CC1=C(C)CC2C(=O)N(c3ccccc3Cl)C(=O)C2C1 (stereo not shown),1.96%
11,O=C1CCCN1CCC/N=C/c1c(-c2ccccc2)nn(-c2nc3ccccc3s2)c1O,-5.26%
12,O=C1CNCC(=O)N1CCc1ccccc1,-0.216%
13,c1ccc2c(c1)CCN(Cc1nnc(-c3ccc4c(c3)OCO4)o1)C2,-3.34%
14,O=c1oc2ccccc2cc1-c1cn(-c2ccccc2F)c(S)n1,16.4%
15,Cc1ccccc1OCC(=O)Nc1nn2c(C)nnc2s1,0.522%
16,CC1CCCC(C)N1C(=O)c1ccc(Cl)cc1 (stereo not shown),-3.82%
17,CC1CCN(S(=O)(=O)c2ccc(NC(=O)Nc3ccccc3)cc2)CC1,13.9%
18,Fc1ccc(OCCCn2ccnc2)cc1,-0.833%
19,COc1cc(C2C3=C(CC(C)(C)CC3=O)OC3=C2C(=O)CC(C)(C)C3)cc2sc(=O)oc12,-4.01%
20,COCCNc1nc2c(=O)[nH]c(=O)n(C)c2[nH]1,-3.28%
21,O=C(O)c1ccc2c(c1)C(=O)NC2=O,3.47%
22,CN(C)C(=O)c1nnc(Cc2ccc(Cl)cc2)o1,0.738%
23,CCCOc1ccc(-c2nc3c(=O)n(C)c(=O)n(C)c3[nH]2)cc1,3.69%
24,COc1ccc(CN2CCN(C(=O)C(C)n3sc4ccccc4c3=O)CC2)c(OC)c1OC (stereo not shown),0.544%
25,Oc1ccc(CCc2ncccc2O)cc1,-2.18% and -9.55%

row,Structure (SMILES),% Inhibition @ 10 uM
1,CCSc1nc2c(c(=O)n1C1CCCCC1)C1(CCCCC1)Cc1ccccc1-2,1.4%
2,CCCCN(CCCC)CC1OCc2ccccc2CO1,-3.45%
3,COC(=O)c1cc(-c2cccc(OC)c2)c2c(=O)n(C)c(=O)n(C)c2n1,2.73%
4,Nc1ccc(O)c(-c2nc3cc(N)ccc3s2)c1,-2.42%
5,O=C(Cn1cc(C(=O)c2ccco2)c2ccccc21)NCc1ccccc1,-3.13%
6,CCCc1nnc(NC(=O)c2cc(=O)c3cc(C)ccc3o2)s1,1.9%
7,CC(Cc1ccccc1)NC(=O)CC(c1ccccc1)c1ccccc1 (stereo not shown),-1.56%
8,COc1cccc(/C=C2/NC(=O)N(c3ccccc3)C2=O)c1OCC(=O)Nc1ccccc1,1.57%
9,CC(=O)NC(Cc1ccccc1)P(=O)(O)O (stereo not shown),-1.05%
10,COc1ccc(CNC(=O)COc2ccc3c(c2)C(=O)CC2(CCCCC2)O3)cc1,3.89%
11,CC1CCC(C(C)C)C(OP(=O)(c2ccccc2)C(O)c2ccncc2)C1 (stereo not shown),-5.41%
12,CC(C)CN1CC(C(=O)O)CC1=O (stereo not shown),1.51%
13,CCOC(=O)c1c(C)n(Cc2ccc(F)cc2)c2ccc(O)cc12,0.413%
14,COc1cc(/C=C2\C(=N)N3N=C(N4CCCC4)SC3=NC2=O)cc(OC)c1OC,6.38%
15,CCOCCCN(Cc1ccco1)C(=O)c1cc2c(=O)oc3ccc(C)cc3c2s1,4.68%
16,CCOc1ccc(/N=C/Nc2ccc(OCC)cc2)cc1,-10.7%
17,Cc1cc2ccccc2c(=O)n1CC(=O)NCCCN1CCC(C)CC1,-1.51%
18,CC(=O)Nc1ccc(NC(=O)C(C)Oc2ccccc2C)cc1 (stereo not shown),-4.02%
19,COC(=O)C1=C(C)N(Cc2ccco2)C(=O)/C1=C\c1cc(C)n(-c2ccc(OC)c(Cl)c2)c1C,-3.63%
20,CCC1CCc2c(sc(NC(=O)C3CCCCC3C(=O)O)c2C(N)=O)C1 (stereo not shown),3.04%
21,CCO/C(O)=C1\C(C)=NC(=S)NC1c1ccc(OC)c2ccccc12 (stereo not shown),3.06%
22,O=S(=O)(Nc1nc2ccccc2nc1-n1cnc2ccccc21)c1ccccc1,-0.415%
23,CCC1CCc2c(sc(NS(=O)(=O)c3ccc(NC(C)=O)cc3)c2C(N)=O)C1 (stereo not shown),7.03%
24,CN1CCc2c(sc(N)c2C(=O)OC(C)(C)C)C1,-2.97%
25,O=C(c1cccnc1)N1CCN(c2ccc(F)cc2)CC1,-0.833%

row,Structure (SMILES),% Inhibition @ 10 uM
1,CC(C)CC(NC(=O)c1ccc(NC(=O)Nc2nccs2)cc1)C(=O)NCC#N (stereo not shown),-5.64%
2,C=CCOC(=O)C1=C(C)N=C2CCCC(O)=C2C1c1cccc(Cl)c1Cl (stereo not shown),-4.18%
3,CCC(C)NC(=O)C1CC(c2ccc(F)cc2)=NO1 (stereo not shown),2.85%
4,CC(CCc1ccccc1)NC(=O)Cn1cc2c(n1)CCCC2 (stereo not shown),1.8%
5,CCOc1ccc(CNc2nc3ccc(Cl)cc3nc2-n2nc(C)cc2C)cc1OC,2.56%
6,O=C(OCCCC(F)(F)C(F)(F)F)c1ccccc1C(=O)n1nnc2ccccc21,-8.17%
7,Cc1cccc(NC(=O)c2cc3c(s2)-c2c(C)cccc2OC3)n1,-1.37%
8,Fc1ccc(F)c(CN2CCN(c3ccccc3)CC2)c1,1.08%
9,Cn1c(=O)n(C)c2cc(/C=C3/SC(=O)N(Cc4ccccc4Cl)C3=O)ccc21,-12.1%
10,COc1cc(C(=O)Nc2cccc(-c3nc4ncccc4o3)c2)cc(OC)c1OC,5.07%
11,CSc1ncc(C(=O)N[C@@H](CC(C)C)C(=O)NCC#N)cn1,-3.48%
12,Cc1nn(-c2ccccc2)c(O)c1C1(C(F)(F)F)C(=O)Nc2c1c(=O)[nH]c(=O)n2Cc1ccco1 (stereo not shown),1.91%
13,COCc1[nH]nc2c1C(c1cc(Br)ccc1F)C(C#N)=C(N)O2 (stereo not shown),3.99%
14,Cc1ccc2nc(NC(=O)C3CCN(S(=O)(=O)c4cccs4)CC3)sc2c1,31.4%
15,Cc1ccc(NC(=O)C2CCCN2C(=O)C(C)(C)C)cc1 (stereo not shown),7.93%
16,Nc1cc(=O)[nH]c(=O)n1Cc1ccccc1,2.03%
17,C=CCOc1nc2c(c(=O)n(Cc3ccc(Br)cc3)c(=O)n2C)n1C,3.6%
18,COc1ccc(N2C(=O)CC(NCc3ccc(Cl)cc3)C2=O)cc1 (stereo not shown),1.15%
19,COc1ccc2c(c1)CC/C(=C\c1ccc([N+](=O)[O-])cc1)C2=O,-1.77%
20,Cc1cc(C)c2nnc(SCC(=O)Nc3nccs3)n2n1,-1.05%
21,O=C(Cn1nnc2sc(-c3ccccc3)cc2c1=O)c1ccc(Cl)cc1,-0.946%
22,COc1ccc(Nc2nc(OC(C(F)(F)F)C(F)(F)F)nc(N3CCOCC3)n2)cc1,-3.58%
23,CCOc1ccc(CCNC(=O)C(CC)n2sc3ccccc3c2=O)cc1OCC (stereo not shown),-8.05%
24,O=C(Nc1ccc(Cl)cc1)c1cc2n(n1)C(C(F)(F)F)CC(c1ccco1)N2 (stereo not shown),4.07%
25,O=C(CSc1ccccn1)N1CCN(S(=O)(=O)c2ccccc2)C1,6.47%

row,Structure (SMILES),% Inhibition @ 10 uM
1,O=C(c1ccccc1F)c1cn(CC(=O)N2CCCCC2)c2ccccc12,-1.72%
2,COc1ccc(/C=C2\N=C(c3ccc(C)cc3)OC2=O)cc1OC,-2.23%
3,CCOc1cc(C2C(C#N)=C(N)Oc3c2c(C)nn3-c2ccccc2)ccc1O (stereo not shown),-5.79%
4,Cc1nc2c(c(C)nn2-c2ccccc2)c(C)c1CCC(=O)NC1CCN(Cc2ccccc2)CC1,-2.25%
5,CCN1CCCC1CNC(=O)C1CCN(c2ncnc3c2nc2n3CCCCC2)CC1 (stereo not shown),0.483%
6,Cc1ccc(CCNC(=O)Cn2ccc3cc(S(=O)(=O)N4CCCC4)ccc32)cc1,-2%
7,O=C(CCCSc1nc(-c2ccco2)cc(C(F)(F)F)n1)NCC1CCCO1 (stereo not shown),-11.5%
8,CCOc1nc(-c2ccccc2)nc(C)c1Cc1ccccc1,2.89%
9,O=C(NCC(c1ccco1)N1CCCC1)c1ccc(Br)cc1 (stereo not shown),3.66%
10,O=C1CC(c2cccc(O)c2)c2c(O)nc(SCc3ccccc3Cl)nc2N1 (stereo not shown),8.16%
11,Cc1cc2oc(C(=O)Nc3nnc(CC(C)C)s3)cc(=O)c2cc1C,-3.24%
12,Cc1ccc(C(=O)NC(C)c2ccc3c(c2)OCCO3)cc1 (stereo not shown),0.13%
13,COc1ccc(C2C(C#N)=C(C)NC3=C2S(=O)(=O)c2ccccc23)cc1 (stereo not shown),-0.68%
14,COCCNCc1c(C(=O)O)n(Cc2ccccc2C)c2cc(OC)ccc12,-3.46%
15,Cc1c(Cl)cccc1N(CC(=O)NCc1ccncc1)S(=O)(=O)c1ccccc1,2.39%
16,N#CC1=C(N)N(c2cccnc2Cl)C2=C(C(=O)CCC2)C1c1cc(CN2CCOCC2)cs1 (stereo not shown),-1.24%
17,CC(C)N1C(=O)/C(=C/c2ccc(Cl)cc2Cl)SC1=S,1%
18,COCCN1C(=O)c2ccccc2C(C(=O)O)C1c1ccccc1O (stereo not shown),-4.33%
19,O=C(OCC(O)CN1CCOCC1)C12CC3CC(CC(C3)C1)C2 (stereo not shown),-0.0267%
20,O=C(CCCCn1c(=O)[nH]c2ccsc2c1=O)N1CCN(c2ccccn2)CC1,-3.27%
21,O=C(NC1CCCc2ccccc21)C1c2ccccc2C(=O)N2CCc3ccccc3C12 (stereo not shown),1.81%
22,CCOC(=O)/C(C#N)=C/c1c(Oc2ccccc2Cl)nc2ccccn2c1=O,3%
23,Cc1ccc(OC(C)C(=O)Nc2cccc(Cl)c2)cc1 (stereo not shown),-6.57%
24,CC(C)N1C(=O)/C(=C/Nc2ccc(Cl)cc2)C(=O)N(Cc2ccco2)C1=O,-1.06%
25,CN(C)C(=O)C12CCC(C)(c3nc4ccccc4nc31)C2(C)C (stereo not shown),-0.0619%
